Test results: US9988430B2, “Stable GLP-1 based GLP-1/glucagon receptor co-agonists” (Novo Nordisk A/S, priority 2014, dated 2018)
For at least one compound, name, drawing or mass did not settle the structure. *1 amine or outer side, *2 acyl side, *3 side chain or, on linkers, in order; H or OH if unused. Where a SMILES comes first, the peptide text is derived from it. Side-chain parts run from the residue outwards. [ ]: non-standard residue; d: D form. The star is where a group is joined. C18 diacid = O=C(O)CCCCCCCCCCCCCCCCC(=O)*; γGlu = O=C(O)[C@H](CCC(=O)[*:2])N[*:1]; Desaminohistidyl = O=C(CCc1c[nH]cn1)*; Ac4c = NC1(C(=O)O)CCC1; AEEA = NCCOCCOCC(=O)O; Aib = CC(C)(N)C(=O)O

assay: Assay (III): ThT fibrillation assay for physical stability; format: physicochemical; settings: pH 7.5, 10 mM HEPES buffer, 37° C., shaking 960 rpm
Excerpt: Assay (III): ThT Fibrillation Assay for the Assessment of Physical Stability of Peptide Compositions
The purpose of this assay is to assess the physical stability of the GLP-1 derivatives of the invention in aqueous solutions.
Low physical stability of a peptide may lead to amyloid fibril formation, which is observed as well-ordered, thread-like macromolecular structures in the sample, which eventually may lead to gel formation. This has traditionally been measured by visual inspection of the sample. However, that kind of measurement is very subjective and depending on the observer. Therefore, the application of a small molecule indicator probe is much more advantageous. Thioflavin T (ThT) is such a probe and has a distinct fluorescence signature when binding to fibrils [Naiki et al. (1989) Anal. Biochem. 177, 244-249; LeVine (1999) Methods. Enzymol. 309, 274-284].
The time course for fibril formation can be described by a sigmoidal curve with the following expression [Nielsen et al. (2001) Biochemistry 40, 6036-6046]:
Here, as depicted in FIG. 1, F is the ThT fluorescence at the time t. The constant t0 is the time needed to reach 50% of maximum fluorescence. The two important parameters describing fibril formation are the lag-time calculated by t0−2τ and the apparent rate constant kapp 1/τ.
Samples were prepared freshly before each assay. Each sample composition is described in the legends. The pH of the sample was adjusted to the desired value using appropriate amounts of concentrated NaOH and HCl. Thioflavin T was added to the samples from a stock solution in H2O to a final concentration of 1 μM.
Sample aliquots of 200 μl (250 pM of the GLP-1 derivative in 10 mM HEPES buffer, pH 7.5) were placed in a 96 well microtiter plate (Packard OptiPlate™-96, white polystyrene). Usually, four or eight replica of each sample (corresponding to one test condition) were placed in one column of wells. The plate was sealed with Scotch Pad (Qiagen).
Incubation at given temperature, shaking and measurement of the ThT fluorescence emission were done in a Fluoroskan Ascent FL fluorescence platereader (Thermo Labsystems). The temperature was adjusted to 37° C. The plate was incubated with orbital shaking adjusted to 960 rpm with an amplitude of 1 mm. Fluorescence measurement was done using excitation through a 444 nm filter and measurement of emission through a 485 nm filter.
Each run was initiated by incubating the plate at the assay temperature for 10 min. The plate was measured every 20 minutes for a desired period of time. Between each measurement, the plate was shaken and heated as described.
After completion of the ThT assay the four or eight replica of each sample was pooled and centrifuged at 20000 rpm for 30 minutes at 18° C. The supernatant was filtered through a 0.22 μm filter and an aliquot was transferred to a HPLC vial.
The concentration of peptide in the initial sample and in the filtered supernatant was determined by reverse phase HPLC using an appropriate standard as reference. The percentage fraction the concentration of the filtered sample constituted of the initial sample concentration was reported as the recovery.
The measurement points were saved in Microsoft Excel format for further processing and curve drawing and fitting was performed using GraphPad Prism. The background emission from ThT in the absence of fibrils was negligible. The data points are typically a mean of four or eight samples and shown with standard deviation error bars. Only data obtained in the same experiment (i.e. samples on the same plate) are presented in the same graph ensuring a relative measure of fibrillation between experiments.
The data set may be fitted to Eq. (1).

ThT assay pH 7.5: Lag time, 45.0 h:
CC[C@H](C)[C@H](NC(=O)[C@H](Cc1ccccc1)NC(=O)[C@H](CCC(=O)O)NC(=O)[C@H](CCCNC(=N)N)NC(=O)[C@H](C)NC(=O)[C@H](C)NC(=O)[C@H](CCC(N)=O)NC(=O)[C@H](CCC(=O)O)NC(=O)[C@H](CCC(=O)O)NC(=O)[C@H](CC(C)C)NC(=O)[C@H](Cc1ccc(O)cc1)NC(=O)[C@H](CCCCN)NC(=O)[C@H](CO)NC(=O)[C@@H](NC(=O)[C@H](CC(=O)O)NC(=O)[C@H](CO)NC(=O)[C@@H](NC(=O)[C@H](Cc1ccccc1)NC(=O)[C@@H](NC(=O)CNC(=O)[C@H](Cc1c[nH]cn1)NC(=O)C(C)(C)NC(=O)CCc1c[nH]cn1)[C@@H](C)O)[C@@H](C)O)C(C)C)C(=O)N[C@@H](C)C(=O)N[C@@H](Cc1c[nH]c2ccccc12)C(=O)N[C@@H](CC(C)C)C(=O)N[C@@H](CC(C)C)C(=O)N[C@@H](CCCCNC(=O)COCCOCCNC(=O)COCCOCCNC(=O)CC[C@H](NC(=O)CCCCCCCCCCCCCCCCC(=O)O)C(=O)O)C(=O)N[C@H](C(N)=O)[C@@H](C)O [Example 12, N^ε34-[2-[2-[2-[[2-[2-[2-[[(4S)-4-carboxy-4-(17-carboxyheptadecanoylamino)butanoyl]amino]ethoxy]ethoxy]acetyl]amino]ethoxy]ethoxy]acetyl]-[Imp7,Aib8,His9,Lys18,Glu22,Arg26,Leu33,Thr35]-GLP-1-(7-35)-peptide amide] (Desaminohistidyl-[Aib]HGTFTSDVSKYLEEQAAREFIAWLLK([AEEA-AEEA-γGlu-C18 diacid])T-NH2)
CC[C@H](C)[C@H](NC(=O)[C@H](Cc1ccccc1)NC(=O)[C@H](CCC(=O)O)NC(=O)[C@H](CCCNC(=N)N)NC(=O)[C@H](C)NC(=O)[C@H](C)NC(=O)[C@H](CCCNC(=N)N)NC(=O)CNC(=O)[C@H](CCC(=O)O)NC(=O)[C@H](CC(C)C)NC(=O)[C@H](Cc1ccc(O)cc1)NC(=O)[C@H](CCCCN)NC(=O)[C@H](CO)NC(=O)[C@H](Cc1ccc(O)cc1)NC(=O)[C@H](CC(=O)O)NC(=O)[C@H](CO)NC(=O)[C@@H](NC(=O)[C@H](Cc1ccccc1)NC(=O)[C@@H](NC(=O)CNC(=O)[C@H](Cc1c[nH]cn1)NC(=O)C1(NC(=O)CCc2c[nH]cn2)CCC1)[C@@H](C)O)[C@@H](C)O)C(=O)N[C@@H](C)C(=O)N[C@@H](Cc1c[nH]c2ccccc12)C(=O)N[C@@H](CC(C)C)C(=O)N[C@@H](CC(C)C)C(=O)N[C@@H](CCCCN)C(=O)N[C@@H](CCCCNC(=O)CC[C@H](NC(=O)COCCOCCNC(=O)CC[C@H](NC(=O)COCCOCCNC(=O)CC[C@H](NC(=O)COCCOCCNC(=O)CC[C@H](NC(=O)CC[C@H](NC(=O)CCCCCCCCCCCCCCCCC(=O)O)C(=O)O)C(=O)O)C(=O)O)C(=O)O)C(=O)O)C(N)=O [Example 26, N^ε35-[(4S)-4-carboxy-4-[[2-[2-[2-[[(4S)-4-carboxy-4-[[2-[2-[2-[[(4S)-4-carboxy-4-[[2-[2-[2-[[(4S)-4-carboxy-4-[[(4S)-4-carboxy-4-(17-carboxyheptadecanoylamino)butanoyl]amino]butanoyl]amino]ethoxy]ethoxy]acetyl]amino]butanoyl]amino]ethoxy]ethoxy]acetyl]amino]butanoyl]amino]ethoxy]ethoxy]acetyl]amino]butanoyl]-[Imp7,Acb8,His9,Tyr16,Lys18,Arg23,Arg26,Leu33,Lys35]-GLP-1-(7-35)-peptide amide] (Desaminohistidyl-[Ac4c]HGTFTSDYSKYLEGRAAREFIAWLLKK([γGlu-AEEA-γGlu-AEEA-γGlu-AEEA-γGlu-γGlu-C18 diacid])-NH2)
CC[C@H](C)[C@H](NC(=O)[C@H](Cc1ccccc1)NC(=O)[C@H](CCCCNC(=O)COCCOCCNC(=O)COCCOCCNC(=O)CC[C@H](NC(=O)CC[C@H](NC(=O)CC[C@H](NC(=O)CCCCCCCCCCCCCCCCC(=O)O)C(=O)O)C(=O)O)C(=O)O)NC(=O)[C@H](CCCNC(=N)N)NC(=O)[C@H](C)NC(=O)[C@H](C)NC(=O)[C@H](CCC(N)=O)NC(=O)[C@H](CCC(=O)O)NC(=O)[C@H](CCC(=O)O)NC(=O)[C@H](CC(C)C)NC(=O)[C@H](Cc1ccc(O)cc1)NC(=O)[C@H](CCCNC(=N)N)NC(=O)[C@H](CO)NC(=O)[C@@H](NC(=O)[C@H](CC(=O)O)NC(=O)[C@H](CO)NC(=O)[C@@H](NC(=O)[C@H](Cc1ccccc1)NC(=O)[C@@H](NC(=O)CNC(=O)[C@H](Cc1c[nH]cn1)NC(=O)C(C)(C)NC(=O)CCc1c[nH]cn1)[C@@H](C)O)[C@@H](C)O)C(C)C)C(=O)N[C@@H](C)C(=O)N[C@@H](Cc1c[nH]c2ccccc12)C(=O)N[C@@H](CC(C)C)C(=O)N[C@@H](CC(C)C)C(=O)N[C@@H](CCCNC(=N)N)C(=O)O [Example 19, N^ε27-[2-[2-[2-[[2-[2-[2-[[(4S)-4-carboxy-4-[[(4S)-4-carboxy-4-[[(4S)-4-carboxy-4-(17-carboxyheptadecanoylamino)butanoyl]amino]butanoyl]amino]butanoyl]amino]ethoxy]ethoxy]acetyl]amino]ethoxy]ethoxy]acetyl]-[Imp7,Aib8,His9,Arg18,Glu22,Arg26,Lys27,Leu33,Arg34]-GLP-1-(7-34)-peptide] (Desaminohistidyl-[Aib]HGTFTSDVSRYLEEQAARK([AEEA-AEEA-γGlu-γGlu-γGlu-C18 diacid])FIAWLLR-OH)
CC[C@H](C)[C@H](NC(=O)[C@H](Cc1ccccc1)NC(=O)[C@H](CCC(=O)O)NC(=O)[C@H](CCCNC(=N)N)NC(=O)[C@H](C)NC(=O)[C@H](C)NC(=O)[C@H](CCC(N)=O)NC(=O)[C@H](CCC(=O)O)NC(=O)[C@H](CCC(=O)O)NC(=O)[C@H](CC(C)C)NC(=O)[C@H](Cc1ccc(O)cc1)NC(=O)[C@H](CCCCN)NC(=O)[C@H](CO)NC(=O)[C@H](Cc1ccc(O)cc1)NC(=O)[C@H](CC(=O)O)NC(=O)[C@H](CO)NC(=O)[C@@H](NC(=O)[C@H](Cc1ccccc1)NC(=O)[C@@H](NC(=O)CNC(=O)[C@H](Cc1c[nH]cn1)NC(=O)C1(NC(=O)CCc2c[nH]cn2)CCC1)[C@@H](C)O)[C@@H](C)O)C(=O)N[C@@H](C)C(=O)N[C@@H](Cc1c[nH]c2ccccc12)C(=O)N[C@@H](CC(C)C)C(=O)N[C@@H](CC(C)C)C(=O)N[C@@H](CCCCN)C(=O)N[C@@H](CCCCNC(=O)CC[C@H](NC(=O)COCCOCCNC(=O)CC[C@H](NC(=O)COCCOCCNC(=O)CC[C@H](NC(=O)COCCOCCNC(=O)CC[C@H](NC(=O)CC[C@H](NC(=O)CCCCCCCCCCCCCCCCC(=O)O)C(=O)O)C(=O)O)C(=O)O)C(=O)O)C(=O)O)C(N)=O [Example 21, N^ε35-[(4S)-4-carboxy-4-[[2-[2-[2-[[(4S)-4-carboxy-4-[[2-[2-[2-[[(4S)-4-carboxy-4-[[2-[2-[2-[[(4S)-4-carboxy-4-[[(4S)-4-carboxy-4-(17-carboxyheptadecanoylamino)butanoyl]amino]butanoyl]amino]ethoxy]ethoxy]acetyl]amino]butanoyl]amino]ethoxy]ethoxy]acetyl]amino]butanoyl]amino]ethoxy]ethoxy]acetyl]amino]butanoyl]-[Imp7,Acb8,His9,Tyr16,Lys18,Glu22,Arg26,Leu33,Lys35]-GLP-1-(7-35)-peptide amide] (Desaminohistidyl-[Ac4c]HGTFTSDYSKYLEEQAAREFIAWLLKK([γGlu-AEEA-γGlu-AEEA-γGlu-AEEA-γGlu-γGlu-C18 diacid])-NH2)
